Reference: PubChem BioAssay AID504466 (National Center for Advancing Translational Sciences (NCATS), 2011)
Hit rate of the full screen: of about 330,000 compounds, about 4,200 (1.3%) were called active. This list was built around the results that the source calls inconclusive (neither active nor inactive); the mix of calls is not that of the screen. The call rests on the fitted dose curve; in most records, active means well fitted activation curve with a large enough effect; inconclusive means small, poorly fitted or top-dose-only effect; inactive means no such curve, though single readings can be large or run the other way. A potency beside an inconclusive call is a rough fit, not a confirmed value.

Experiment: qHTS screen for small molecules that induce genotoxicity in human embryonic kidney (HEK293T) cells expressing luciferase-tagged ELG1; further: nearly all actives have a fitted effect of over 60% in size; on activity change, positive = activation: % of control where 0% means no effect
Conditions: HEK293T ELG1-luciferase reporter, luminescence, 16 h; series mostly up to 46 µM; activity change, positive = activation: at the top concentration
Outline: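 Step 1: seed 2,000 HEK293T ELG1-luciferase cells per well. Step 2: add compound or DMSO, incubate 16 hr at 37 °C. Step 3: ONE-Glo, 30 min at room temperature, read luminescence.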
Potency means the concentration at half of the fitted maximal effect; tags describe the fitted curve by direction and shape.

Row | Compound | activity change, positive = activation | Potency
1 | COCCCNC(=O)C[C@H]1C[C@H](C(=O)N(C(C)C)C(C)C)[C@@]2(C)c3[nH]c4cc(CCC(=O)N(C)C)ccc4c3CCN2C1=O | inactive: 1.57% | 
2 | CCOc1ccc(NCc2nnc(SCC(=O)Nc3nc(-c4ccccc4)cs3)n2-c2ccccc2)cc1 |  | inconclusive: 29.1 µM [activator, partial curve, poor fit]
3 | O=C(Nc1ccc(F)cc1)c1ccc(S(=O)(=O)N2CCOCC2)o1 | inactive: -6.19% | 
4 | O=C(Nc1cccc2ccccc12)c1ccc([N+](=O)[O-])s1 | inactive: -8.49% | 
5 | Cc1c(C(=O)Nc2nc3ccccc3[nH]2)oc2ccccc12 |  | inconclusive: 3.66 µM [activator, full curve, poor fit]
6 | COC(=O)Cc1c(C)c2ccc(O)c(CNCc3ccc(OC)c(OC)c3)c2oc1=O | inactive: -1.66% | 
7 | COC(=O)c1ccc(CSc2nnc(-c3c[nH]c4ccccc34)n2-c2ccccc2)cc1 | inactive: -12.3% | 
8 | CN1CCN(C(c2ccc(C(F)(F)F)cc2)c2ccc3cccnc3c2O)CC1 (stereo not drawn) |  | inconclusive: 18.3 µM [activator, single point]
9 | O=C(COC(=O)c1ccc(Cl)nc1)Nc1ncc(Cl)cc1Cl |  | inconclusive: 14.6 µM [activator, partial curve, poor fit]
10 | C=CCNc1nc(Nc2ccc([N+](=O)[O-])cc2)nc(OC)n1 |  | inconclusive: 20.6 µM [activator, partial curve]
11 | O=C(Nc1nc2ccccc2[nH]1)C1CCC1 |  | inconclusive: 4.11 µM [activator, partial curve, poor fit]
12 | CC(C)(C)c1ccc(CSc2nc(N)cc(=O)[nH]2)cc1 |  | inconclusive: 20.6 µM [activator, single point]
13 | O=C(N/N=C1\CCc2ccccc21)c1ccc(O)cc1 |  | active: 4.61 µM
14 | COc1ccc(-c2nnc(SCC(=O)c3ccc[nH]3)o2)cc1 |  | inconclusive: 2.82 µM [activator, partial curve, poor fit]
15 | CC(C)c1ccc(NC(=O)N2CCOCC2)cc1 |  | inconclusive: 23.1 µM [activator, partial curve, poor fit]
16 | COc1cccc(/C=C2\NC(=O)NC2=O)c1O |  | inconclusive: 14.6 µM [activator, partial curve, poor fit]
17 | CCOC(=O)C1CCN(C(=O)C2CCN(S(=O)(=O)c3cc(Cl)ccc3OCC)CC2)CC1 | inactive: -3.9% | 
18 | O=C(Nc1ccc(N2CCCC2)cc1)c1ccc(Br)cc1 | inactive: 10.4% | 
19 | CCc1ccc(NCc2ccc(OC)c(Cn3ccnc3)c2)cc1 |  | inconclusive: 32.6 µM [activator, partial curve, poor fit]
20 | CN(/N=C/C=C/c1ccccc1)c1cc(=O)n(C)c(=O)[nH]1 | inactive: -2.57% | 
21 | CC1(C)C(=O)Nc2ccccc2N1C(=O)COC(=O)/C=C/c1ccc(OC(F)F)cc1 | inactive: 1.58% | 
22 | Cc1ccc(NC(=S)Nc2ccccn2)c(C)c1 |  | inconclusive: 2.91 µM [activator, full curve, poor fit]
23 | COc1ccc(C(=O)c2c3ccc([N+](=O)[O-])cc3[n+]([O-])n2CCCN)cc1 |  | inconclusive: 23.1 µM [activator, partial curve, poor fit]
24 | COCC(C)NC(=O)CSc1nc2ccccc2n1CCc1ccccc1 (stereo not drawn) | inactive: -0.796% | 
25 | NS(=O)(=O)c1ccc(CCNC(=O)c2cc(-c3ccc(Br)cc3)nc3ccccc23)cc1 | inactive: -9.02% | 

Row | Compound | activity change, positive = activation | Potency
26 | O=C(c1ccc(F)cc1)c1ccc(N2CCCCC2)cc1 |  | inconclusive: 11.6 µM [activator, partial curve]
27 | O=C(c1ccc(Cl)cc1)C1CCN(C(=O)NC2CCCCC2)CC1 |  | inconclusive: 29.1 µM [activator, single point]
28 | Nc1c(C(=O)Nc2ccccc2)nnn1-c1ccc2c(c1)OCCO2 |  | active: 0.184 µM
29 | COc1ccc(Cn2c(=O)[nH]c3cc(OC)c(OC)cc3c2=O)cc1 | inactive: 6% | 
30 | O=c1[nH]c(C2CCN(S(=O)(=O)Cc3ccccc3)CC2)nc2c1nnn2Cc1ccccc1Cl | inactive: -8.98% | 
31 | Fc1ccc2[nH]c3c(N4CCN(c5ccccc5)CC4)ncnc3c2c1 | inactive: -40.1% | 
32 | COc1ccc(-c2nc(-c3cccc(C)c3)no2)cc1OC |  | inconclusive: 5.17 µM [activator, full curve, poor fit]
33 | CCOc1ccc(NC(=O)c2cc3ccccc3cc2O)cc1 |  | inconclusive: 3.66 µM [activator, partial curve, poor fit]
34 | Cc1ccc2nc(NC(=O)CSc3ncnc4c3oc3ccccc34)sc2c1 |  | inconclusive: 23.1 µM [activator, partial curve, poor fit]
35 | O=C(Nc1ccccc1Cl)c1ccccc1 |  | inconclusive: 20.6 µM [activator, partial curve, poor fit]
36 | CCCCC1CCC(c2nc(-c3ccccn3)no2)CC1 (stereo not drawn) |  | inconclusive: 3.66 µM [activator, full curve]
37 | COc1cc(C)ccc1OCc1cc(C(=O)N2CCC(c3ccc(F)cc3)C2)no1 (stereo not drawn) |  | inconclusive: 4.11 µM [activator, full curve]
38 | COc1ccc(/C=C/C(=O)N(CC(C)C)CC(C)C)cc1Br |  | inconclusive: 23.1 µM [activator, single point]
39 | COC(=O)c1ccc(COc2ccc(C(=O)c3ccccc3)cc2)o1 | inactive: -7.66% | 
40 | O=C(Nc1ccc2nc3ccccc3nc2c1)c1ccccc1 |  | inconclusive: 2.31 µM [activator, partial curve]
41 | CCn1c(Cn2nnc(-c3ccccc3)n2)nnc1SCC(=O)Nc1cccc(C(C)=O)c1 | inactive: -3.65% | 
42 | Cc1ccccc1OCC(=O)Nc1ccc2c(c1)OCCO2 |  | inconclusive: 14.6 µM [activator, partial curve]
43 | Cc1ccc(C(=O)NCCNC(=O)COc2ccc(Cl)cc2)cn1 | inactive: -0.652% | 
44 | CCOC(=O)c1c(C)oc2c1c(C(c1ccncc1)N1CCOCC1)c(O)c1ccccc12 (stereo not drawn) |  | inconclusive: 18.4 µM [activator, single point]
45 | Cc1cc(C)nc(N/N=C/C=C/c2ccccc2)n1 | inactive: 1.33% | 
46 | Nc1nc(Nc2ccccc2F)sc1C(=O)c1ccccc1 |  | inconclusive: 1.03 µM [activator, partial curve]
47 | Cc1ccc2[nH]c(-c3ccccc3)cc(=O)c2c1 |  | inconclusive: 3.26 µM [activator, partial curve]
48 | c1ccc2cc(CCO[C@H]3CCCCO3)ncc2c1 |  | inconclusive: 2.06 µM [activator, partial curve]
49 | Cc1ccc(C)c(S(=O)(=O)N2CCN(C(=O)c3ccc(OCc4c(C)noc4C)cc3)CC2)c1 | inactive: 1.82% | 
50 | O=C1ON=C(c2cccc([N+](=O)[O-])c2)/C1=C/c1ccc(O)cc1 |  | inconclusive: 29.1 µM [activator, single point]

Row | Compound | activity change, positive = activation | Potency
51 | O=C(N/N=C/c1cc2c(cc1Br)OCO2)C1COc2ccccc2O1 (stereo not drawn) |  | inconclusive: 20.6 µM [activator, single point]
52 | Cc1ccn(-c2ccc(NC(=O)c3cccs3)cc2)n1 |  | inconclusive: 2.51 µM [activator, partial curve, poor fit]
53 | N=c1cc(C2(O)CCCCC2)n2c(nc3ccccc32)s1 |  | active: 0.58 µM
54 | N#C/C(=N/Nc1ccc([N+](=O)[O-])cc1)C(=N)N1CCCCC1 |  | inconclusive: 2.31 µM [activator, partial curve]
55 | C[C@H](CO)N1C[C@H](C)[C@@H](CN(C)S(=O)(=O)c2cn(C)cn2)Oc2ccc(NC(=O)NC3CCCCC3)cc2C1=O | inactive: 1.54% | 
56 | Nc1nonc1C(=O)NCCNc1ccc([N+](=O)[O-])cc1 | inactive: -2.36% | 
57 | Cc1ccc(Cc2cnc(NC(=O)C3CCCO3)s2)cc1 (stereo not drawn) |  | inconclusive: 4.11 µM [activator, full curve]
58 | CC(C)c1ccc(OCc2nc(-c3ccccn3)no2)c(Br)c1 |  | inconclusive: 2.91 µM [activator, partial curve]
59 | COc1ccc(-c2cc(C)nc3c(-c4ccccc4)cnn23)cc1 |  | active: 0.651 µM
60 | [O-]/[N+](=C\c1ccccc1)c1ccc(Br)cc1 |  | inconclusive: 16.4 µM [activator, partial curve]
61 | COc1ccc(N(CC(=O)NC2CC3CCC2C3)S(=O)(=O)c2ccccc2)cc1Cl (stereo not drawn) | inactive: -5.5% | 
62 | Cc1ccccc1OC(C)c1nc(-c2ccccc2)no1 (stereo not drawn) |  | inconclusive: 13 µM [activator, partial curve, poor fit]
63 | CCOC(=O)C1CCN(S(=O)(=O)c2ccc3c(c2)CCCN3C(C)=O)CC1 |  | inconclusive: 20.6 µM [activator, partial curve, poor fit]
64 | Cc1nc2ccccc2c2oc(C(=O)N3CCC(N4CCCCC4)CC3)cc12 | inactive: 6.75% | 
65 | Cc1ccc(Nc2nc(N)nc(CSc3nnc(C)s3)n2)cc1 |  | inconclusive: 16.4 µM [activator, partial curve]
66 | COc1ccc(C(=O)O/N=C(\N)c2ccccc2Cl)cc1OC |  | inconclusive: 32.6 µM [activator, partial curve, poor fit]
67 | Cc1ccc(NCCC(=O)c2cccs2)cc1 |  | inconclusive: 8.2 µM [activator, partial curve]
68 | Cc1cccc(-c2onc3ccc(C4(C)OCCO4)cc23)c1 | inactive: -3.55% | 
69 | O=C(c1cc(-c2ccc(F)cc2)on1)N1CCCCCC1 |  | inconclusive: 2.06 µM [activator, full curve]
70 | O=C(Nc1nc2ccccc2[nH]1)c1cccc(Br)c1 |  | active: 2.06 µM
71 | N/C(=N\OC(=O)CC1CCCCC1)c1ccccc1 |  | inconclusive: 20.6 µM [activator, single point]
72 | Cc1ccccc1N(CC(=O)NC1CCCCC1)C(=O)CCCC(=O)Nc1ccccn1 | inactive: -0.966% | 
73 | COc1ccc2c(CC(=O)N3CCc4ccccc43)coc2c1 |  | inconclusive: 5.8 µM [activator, partial curve]
